65 compounds from PubChem BioAssay (NCI) can be followed below.

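Protocol summary: plate cells (96-well), add compound at 5 concentrations, incubate 48 h, interpolate endpoints linearly. At the GI50, growth is halved. At the TGI there is no net growth.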

The test relates to NCI-H322M lung. Put plainly: NCI anticancer screen, dose series, 48 h.
Consider `COC(=O)C1=C(C(=O)OC)C23C=C(C)C1C2=C(C)C1(CC1)[C@@](C)(O)C3=O` (stereo partly drawn), for which the GI50 is 0.332 µM and the TGI turned out to be 3.11 µM.

Take `CSc1nc2sc3cc(Cl)ccc3n2c(=N)c1C#N`: the GI50 was greater than 90.9 µM and the TGI is greater than 100 µM. The like results for `Cc1ccc(C)c(-c2csc(Nc3ccc(C)c(C)c3)n2)c1` were, in that order, greater than 100 µM and greater than 100 µM. For `N#CC1=C(N)OC(c2ccc([N+](=O)[O-])cc2)C1(C#N)C#N` (stereo not drawn), the TGI was determined as 38.1 µM. `CN(CCCCN(C)CCc1ccc(Cl)c(Cl)c1)CCCCN1CCCC1`: the TGI came to 3.08 µM.

In turn, `N#CC(c1cc2c(cc1Br)OCO2)N1CCOCC1` (stereo not drawn) returned a TGI greater than 100 µM.

In turn, `CCOC(=O)CCC(NC(=O)c1ccc(Nc2nc3ccccc3nc2-c2cccs2)cc1)C(=O)OCC` (stereo not drawn) registered a TGI greater than 100 µM. Same read-out and setting: as for `Cc1ccccc1CN1CC=c2ccccc2=N1`, the figure is greater than 100 µM; as for `N/N=C1/CCCc2nonc21`, greater than 100 µM; as for `S=C(S)N1CCN(c2ccc(Cl)c(Cl)c2)CC1`, greater than 100 µM. In the case of `Cc1cc(Cl)ccc1N=C1NC(=O)C(CC(=O)Nc2ccc(Cl)cc2Cl)S1` (stereo not drawn), the TGI is greater than 100 µM. The same measure, in the same setting: as for `O=C(OC(=C(c1ccccc1)c1ccccc1)N1CCCC1=S)C(c1ccccc1)c1ccccc1`, the figure is greater than 10 µM; as for `O=C(/C=C\c1ccc(Cl)cc1Cl)c1cccs1`, greater than 100 µM. The compound `CC(C)OP(=O)(OC(C)C)C(=Nc1ccccc1)NNc1ccc([N+](=O)[O-])cc1` returned a TGI greater than 100 µM. In the case of `Nc1ncnc2c1ncn2C1OC(CO)=CC1O` (stereo not drawn), the TGI was greater than 37.5 µM.

`COc1ccc2oc(C(=O)N3CC(CCl)c4ccc([N+](=O)[O-])cc43)cc2c1` (stereo not drawn) yielded a TGI greater than 100 µM. On to `COc1ccccc1CNCCCN1C(=O)c2ccc3c4c(ccc(c24)C1=O)C(=O)N(CCCNCCCN)C3=O`, for which the GI50 was 1.06 µM and the TGI was determined as 5.93 µM.

The compound `Cc1[nH]c(=O)nc(NCCNCCO)c1C(=O)Nc1c2ccccc2nc2ccccc12` registered a TGI greater than 100 µM. The same measure, in the same setting: as for `COC(=O)CCn1cnc2c(SC)ncnc21`, the figure is greater than 100 µM; as for `NC1=NNC2(C(N)=N1)c1ccccc1-c1ccccc12`, greater than 10 µM. `O=[N+]([O-])c1cc(-[n+]2cc([O-])on2)ccc1F` registered a TGI of 30.9 µM.

Regarding `COc1ccc([C@H]2CC(=O)NCCCCN2)cc1`, the TGI is greater than 100 µM. `COC1=CC(c2ccc[nH]2)=N/C1=C\c1ccc[nH]1`: the GI50 is 0.722 µM and the TGI was determined as 19 µM. Take `O=c1[nH]nc(Cc2ccc(Cl)cc2)n1/N=C\c1ccc(/C=N/n2c(Cc3ccc(Cl)cc3)n[nH]c2=O)cc1`: the TGI was greater than 100 µM. Same read-out and setting: next, `CCO[C@]12C[C@H](OC)[C@@]3(O)CC(C1[C@H]3O)C13C4C2[C@H](OC)C1[C@](COC)(CN4CC)[C@H](O)C[C@@H]3OC` (stereo partly drawn): greater than 100 µM; `O=C(OCC1OC(c2nn[nH]n2)C(OC(=O)c2ccccc2)C1OC(=O)c1ccccc1)c1ccccc1` (stereo not drawn): greater than 100 µM. Same read-out and setting: as for `O=C(CCCl)NNC1=NCCN1`, the figure is greater than 100 µM; as for `CCOC(=O)c1[nH]c2ccccc2c1C(=O)C[C@H](NC(=O)C(F)(F)F)C(=O)OC`, greater than 100 µM. `Nc1nc2nc[nH]c2c(=O)[nH]1` yielded a TGI greater than 100 µM. For the compound `COc1ccc(/C(C)=N/OC(=O)c2c(-c3ccccc3Cl)noc2C)cc1CN1CCOCC1`, the TGI was found to be 75.6 µM. The same measure, in the same setting: next, `OC1CN2CCS[C@H]2C(O)C1O` (stereo partly drawn): greater than 100 µM; `CCOP(=O)(C=C=C(C)C)OCC`: greater than 100 µM; `COc1nc2sc3c(c2c(=O)n1CCCSSCCCn1c(OC)nc2sc4c(c2c1=O)CCCC4)CCCC3`: greater than 100 µM.

`O=C(Nc1c(O)[nH]c(=S)[nH]c1=O)c1ccc2ccccc2n1`: the TGI is greater than 100 µM. With `Cc1cc(C)c2c(=O)n(CN3CCC(O)(c4ccccc4)CC3)sc2n1`, the TGI was greater than 100 µM. On to `CCOP(=O)(OCC)/C(C#N)=C/c1cccn1CC(C)C`, for which the TGI was greater than 100 µM. The same measure, in the same setting: as for `Cc1cccc(-c2cc(=S)c3cc(N4CCCC4)ccc3[nH]2)c1`, the figure is greater than 100 µM; as for `CC1(C)CN=C(Nc2cccc(C(F)(F)F)c2)S1`, greater than 100 µM. In turn, `C1=Cc2nc1c(-c1ccncc1)c1ccc([n-]1)c(-c1ccncc1)c1nc(c(-c3ccncc3)c3ccc([n-]3)c2-c2ccncc2)C=C1.[Zn+2]` displayed a TGI greater than 100 µM. For the compound `CCn1cnc2c(Nc3cccc(Cl)c3)nc(N[C@@H]3CCCC[C@@H]3N)nc21`, the GI50 was 1.65 µM and the TGI turned out to be 7.78 µM.

As to `Cc1c2c(n(Cc3ccccn3)c1C)NN=C(C#N)S2(=O)=O`, the TGI is greater than 100 µM. Still for that read-out and setting: next, `COc1ccccc1Cn1nc(OC)c2cc([N+](=O)[O-])ccc21`: greater than 100 µM. As for `C=C(C)[C@@H]1CC[C@]2(C)[C@H](CC[C@@H]3[C@H]4[C@H]5OC[C@@]4(CCC5(C)C)CC[C@]32C)[C@@]1(C)CCCN`, the GI50 is 1.75 µM and the TGI was 3.17 µM.

On to `CC(=O)N=c1ccc2nc3c(cc(N)c4ccccc43)oc-2c1`, for which the GI50 is 2.52 µM and the TGI came out at 8.15 µM.

For the compound `O=C1OC(O)C(Oc2ccc(Cl)cc2)=C1Cl` (stereo not drawn), the TGI was greater than 100 µM.

For the compound `O=C(Nc1nc2ncn(CC(COc3ccccc3)OC(=O)c3ccccc3)c2c(=O)[nH]1)c1ccccc1` (stereo not drawn), the TGI is greater than 100 µM. On the same count and under the same terms, as for `Cc1ccc(S(=O)(=O)OC2C(C3COC(C)(C)O3)OC3OC(C)(C)OC32)cc1` (stereo not drawn), the figure is greater than 100 µM. The same measure, in the same setting: next, `O=C(NO)C12C3C4C1C1C2C3C41C(=O)NO` (stereo not drawn): greater than 100 µM. The same measure, in the same setting: next, `COc1ccc2c(c1)N=C1CSC(c3cc([N+](=O)[O-])ccc3Cl)N1C2` (stereo not drawn): 47.5 µM.

On to `NCc1nnn(Cc2ccccc2)c1N`, for which the TGI is greater than 100 µM.

For `O=C(NCCO)Nc1c(C(F)(F)F)cc(-c2ccccc2)[nH]c1=O`, the TGI is greater than 100 µM. On to `CCC(C)C(NC(=O)C1CCCN1C(=O)C(NC(=O)C(C)N)C(C)C)C(N)=O` (stereo not drawn), for which the GI50 was greater than 100 µM and the TGI is greater than 100 µM. As for `COc1ccc(-c2nc(-c3nc4ccc(OC)cc4[nH]3)cc3c2[nH]c2ccccc23)cc1`, the GI50 is 3.85 µM and the TGI is greater than 100 µM. In the case of `CCN(CC)CCCNc1nc2ccccc2c2[nH]c3ccc(OC)cc3c12`, the TGI stood at 5.89 µM.

Turning to `COc1ccc(/C=C/C(=O)N[C@@H]2C(=O)N3[C@@H]2SC(C)(C)[C@@H]3C(=O)O)cc1`, the TGI is greater than 100 µM.

As for `Cc1nc(NC(=O)CCCN2C(=O)c3cccc4cccc(c34)C2=O)sc1C(=O)Nc1cc(C(=O)NCCCN(C)C)n(C)c1`, the GI50 was greater than 100 µM and the TGI was greater than 100 µM. The compound `Oc1ccc(Cn2c(-c3ccc(O)c(O)c3)nc3ccccc32)cc1O` came in with a TGI of 58.6 µM. The compound `CN(C)c1nc(-c2ccccc2)c(C(=O)c2c[nH]c3ccccc23)s1` registered a TGI greater than 100 µM.

In the case of `NS(=O)(=O)c1ccc(N2N=C3c4ccccc4CC3C2c2ccc(Cl)cc2)cc1` (stereo not drawn), the GI50 is 5.8 µM and the TGI came to 43.5 µM. Consider `CN(C)c1ccc(/C=C(\NC(=O)c2ccccc2)C2NC(Cc3c[nH]c4ccccc34)C(=O)O2)cc1` (stereo not drawn), for which the TGI was greater than 100 µM.

With `O=[N+]([O-])O.[Ga]`, the TGI was greater than 10000 µM. On the same count and under the same terms, next, `CCOC(=O)NC(NC(C)CC)(C(F)(F)F)C(F)(F)F` (stereo not drawn): greater than 100 µM.

With `COC(=O)C(Cl)=C1CC1`, the TGI is greater than 100 µM. Same read-out and setting: as for `COc1cccc(N2C(=O)CSC2c2cc(OC)c(OC)c(OC)c2)c1` (stereo not drawn), the figure is greater than 100 µM. Regarding `COc1cc(-n2cc(-c3ccc(Cl)cc3)[nH]c2=O)cc(OC)c1OC`, the GI50 was 19.8 µM and the TGI was found to be 74.5 µM.
